# In PubChem BioAssay (NCATS):
# The inconclusive results got no clear call from the source; some entries with a clear call stand among them for comparison. For some assays here: No potency is given beside an inconclusive call; the fits are too rough. The source made the active and inactive calls. Unless noted, calls come from the whole dose curve; as a rule, active = well fitted curve in the direction sought with a large enough effect; inconclusive = small, poorly fitted or top-dose-only effect, or another doubt; inactive = no such curve, though single readings can be large; an effect the other way counts as inactive or inconclusive.
# Key:
# [1] = Confirmatory screen NINDS Rhodamine qHTS for Zika virus inhibitors (AID 1347161); note: potency is the fitted concentration of half-maximal effect; nearly all actives have a fitted effect of over 60% in size
# Summary of the method: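 In 10 mM Tris-HCl pH 8.0 containing 0.01% Tween 20, linked NS2B-NS3 protease (25 nM final) is exposed to test compounds for 15 min. Cleavage of 1.5 microM Rhodamine110 substrate is tracked by fluorescence over 15 min.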
# [2] = NS1 protein of Zika virus - qHTS assay to identify small molecule inhibitors in human HEK 293 cells (AID 1347053);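 note: plate controls were infected untreated cells for no effect and uninfected cells for full effect; nearly all actives have a fitted effect of over 55% in size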
# Summary of the method: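 HEK 293 cells, seeded 20 h at 37 C, were pretreated with compound 1 h, then infected with ZIKV MR766 (MOI = 0.5) for 24 h. NS1 was read by TR-FRET with two anti-NS1 antibodies, normalized to uninfected and infected wells.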
# Tov112D = assay: Primary qHTS to identify gynecologic anti-cancer compounds using libraries of approved drugs and bioactive compounds (AID 1345084); conditions: Gynecologic cancer cell panel viability, ATPlite luminescence, 48 h; series mostly up to 57.5 µM; note: % is set by controls: 0 for no effect and ±100 for the full control effect; nearly all actives have a fitted effect of over 55% in size
# Summary of the method: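 ATP-based viability (ATPlite), 1,000 cells/well, 16 h pre-incubation, 48 h compound at 37 C, 5% CO2, 15 min RT before read.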
# [3] = biological target: Rap guanine nucleotide exchange factor 4 (Homo sapiens) (UniProt Q8WZA2); assay: Confirmatory qHTS for agonist of cAMP-regulated guanine nucleotide exchange factor 4 (EPAC2) (AID 1645884);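 note: nucleotide exchange releases bodipy-GDP from Rap1 and this lowers its fluorescence; % is set by controls: 0 for no effect and ±100 for the full control effect; nearly all actives have a fitted effect of over 65% in size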
# Chain of UniProt Q8WZA2 (Q8WZA2 whole entry, looked up): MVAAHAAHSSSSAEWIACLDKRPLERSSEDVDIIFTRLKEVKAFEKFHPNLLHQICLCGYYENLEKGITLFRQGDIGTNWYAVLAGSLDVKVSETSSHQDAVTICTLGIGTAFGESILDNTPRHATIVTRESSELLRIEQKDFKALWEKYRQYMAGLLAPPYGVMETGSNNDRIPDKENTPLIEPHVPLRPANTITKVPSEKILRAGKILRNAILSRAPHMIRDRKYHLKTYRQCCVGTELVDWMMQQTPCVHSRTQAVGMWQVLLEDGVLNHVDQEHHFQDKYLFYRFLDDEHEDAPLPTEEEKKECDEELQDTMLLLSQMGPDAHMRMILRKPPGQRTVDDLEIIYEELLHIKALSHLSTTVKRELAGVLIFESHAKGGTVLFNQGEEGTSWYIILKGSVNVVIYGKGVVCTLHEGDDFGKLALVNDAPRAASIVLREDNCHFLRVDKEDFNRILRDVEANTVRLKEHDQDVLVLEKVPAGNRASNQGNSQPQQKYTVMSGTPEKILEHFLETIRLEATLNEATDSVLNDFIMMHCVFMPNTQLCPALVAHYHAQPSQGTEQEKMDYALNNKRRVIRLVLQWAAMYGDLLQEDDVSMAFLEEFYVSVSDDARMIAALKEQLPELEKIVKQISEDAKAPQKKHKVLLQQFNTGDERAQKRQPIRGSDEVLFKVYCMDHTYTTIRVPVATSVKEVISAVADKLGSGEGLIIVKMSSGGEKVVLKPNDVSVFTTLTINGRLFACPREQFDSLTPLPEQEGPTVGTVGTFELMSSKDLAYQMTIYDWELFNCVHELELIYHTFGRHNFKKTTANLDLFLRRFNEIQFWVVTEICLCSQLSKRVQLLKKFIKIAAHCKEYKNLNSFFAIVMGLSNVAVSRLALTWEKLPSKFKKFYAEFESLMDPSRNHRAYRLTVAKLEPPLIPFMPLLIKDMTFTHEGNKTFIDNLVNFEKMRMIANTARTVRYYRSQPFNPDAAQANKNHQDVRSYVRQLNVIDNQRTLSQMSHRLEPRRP
# [4] = biological target: Cytochrome P450 3A4 (Homo sapiens) (UniProt P08684); assay: qHTS Assay for Activators of Cytochrome P450 3A4 (AID 885); conditions: recombinant CYP3A4, Luciferin-PPXE luminescence, 60 min; note: potency is the fitted concentration of half-maximal effect; nearly all actives have a fitted effect of over 65% in size
# Chain of UniProt P08684 (P08684 whole entry, looked up): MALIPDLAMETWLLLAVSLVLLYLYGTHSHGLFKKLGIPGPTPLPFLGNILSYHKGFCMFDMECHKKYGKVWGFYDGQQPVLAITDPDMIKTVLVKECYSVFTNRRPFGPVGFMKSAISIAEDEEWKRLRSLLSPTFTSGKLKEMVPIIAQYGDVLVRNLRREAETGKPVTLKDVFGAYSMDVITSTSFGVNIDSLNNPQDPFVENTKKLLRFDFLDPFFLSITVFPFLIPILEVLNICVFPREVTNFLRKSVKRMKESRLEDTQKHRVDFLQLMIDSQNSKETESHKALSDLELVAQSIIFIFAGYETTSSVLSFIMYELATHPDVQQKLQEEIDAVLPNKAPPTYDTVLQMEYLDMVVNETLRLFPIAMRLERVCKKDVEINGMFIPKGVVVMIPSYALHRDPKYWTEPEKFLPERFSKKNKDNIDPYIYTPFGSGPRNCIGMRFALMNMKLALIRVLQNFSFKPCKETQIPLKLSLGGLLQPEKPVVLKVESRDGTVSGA
# Summary of the method: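 20nM CYP3A4 + 25uM Luciferin-PPXE (=KM), 200mM KPO4; cpd 10 min RT; NADPH regen, 60 min RT; stop w/ detection buffer, 20 min; luminescence. Normalized to 57 uM ketoconazole.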
# [5] = qHTS of Nrf2 Activators: LOPAC Validation (AID 624149); conditions: Nrf2/ARE reporter cell assay; at 46.1 µM (top of the series); note: 0% is about no effect
# Summary of the method: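 AREc32 cells carrying an ARE-driven firefly luciferase were grown overnight in OPTI-MEM with 5% FBS, then exposed to compounds for 24 hr at 37 deg C. Luciferase signal was read after 30 min with Steady-Glo at RT.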
# [6] = qHTS assay for small molecule disruptors of the mitochondrial membrane potential - 1 hr assay (AID 651754; calls by dose curve; note: % is set by controls: 0 for no effect and ±100 for the full control effect; nearly all actives have a fitted effect of over 35% in size); conditions: ratio change, negative = depolarisation: at 92.2 µM (top of the series)
# Summary of the method: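 HepG2 cells, attached overnight at 37C, were exposed to compound or DMSO vehicle for 1 hr at 37C, 5% CO2, then stained with Mito-MPS dye for 30 min. Red aggregate versus green monomer fluorescence reports membrane potential.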
# [7] = biological target: Tyrosyl-DNA phosphodiesterase 1 (Homo sapiens) (UniProt Q9NUW8); assay: Confirmation Assay for Inhibitors of Tyrosyl-DNA Phosphodiesterase (TDP1) (AID 489007); conditions: recombinant human TDP1 enzymatic activity, dose-response; note: potency is the fitted concentration of half-maximal effect; nearly all actives have a fitted effect of over 40% in size
# Chain of UniProt Q9NUW8 (Q9NUW8 whole entry, looked up): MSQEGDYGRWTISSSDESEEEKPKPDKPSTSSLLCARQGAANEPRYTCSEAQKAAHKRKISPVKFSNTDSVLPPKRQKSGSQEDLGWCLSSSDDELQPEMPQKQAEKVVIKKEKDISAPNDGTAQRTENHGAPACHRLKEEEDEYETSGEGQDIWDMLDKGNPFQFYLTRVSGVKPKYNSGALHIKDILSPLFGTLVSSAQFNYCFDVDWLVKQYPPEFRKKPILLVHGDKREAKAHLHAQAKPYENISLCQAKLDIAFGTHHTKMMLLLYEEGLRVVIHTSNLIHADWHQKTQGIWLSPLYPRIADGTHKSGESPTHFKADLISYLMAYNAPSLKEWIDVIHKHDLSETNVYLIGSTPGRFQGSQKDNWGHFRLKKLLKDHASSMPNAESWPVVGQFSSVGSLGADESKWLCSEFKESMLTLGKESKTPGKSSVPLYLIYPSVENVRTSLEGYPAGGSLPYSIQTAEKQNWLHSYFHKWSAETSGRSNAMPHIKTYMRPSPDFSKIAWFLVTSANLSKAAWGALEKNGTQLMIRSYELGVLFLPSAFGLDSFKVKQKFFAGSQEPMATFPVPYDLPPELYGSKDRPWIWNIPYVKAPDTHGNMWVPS
# Summary of the method: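 Recombinant E. coli-expressed Tdp1 (1 nM final) was preincubated with compounds 15 min at room temperature, then reacted 5 min with 15 nM 5'-biotin/3'-phosphotyrosine-FITC DNA substrate; cleavage read as loss of AlphaScreen signal (10 ug/ml beads, 10 min).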
# [8] = biological target: 3',5'-cyclic-AMP phosphodiesterase 4B (Homo sapiens) (UniProt Q07343); assay: qHTS Assay for Inhibitors of PDE-IV (AID 607; active = well fitted activation curve with a large enough effect in the main read-out, with a control signal flat, not every such curve was filed as active; inconclusive = small, poorly fitted or top-dose-only effect, or effect the other way, or a change in a side signal; note: potency is the fitted concentration of half-maximal effect); conditions: HEK293 ACTOne CNG channel cells, membrane potential fluorescence; activation (PDE inhibition): at 22.9 µM (top of the series)
# Chain of UniProt Q07343 (Q07343 whole entry, looked up): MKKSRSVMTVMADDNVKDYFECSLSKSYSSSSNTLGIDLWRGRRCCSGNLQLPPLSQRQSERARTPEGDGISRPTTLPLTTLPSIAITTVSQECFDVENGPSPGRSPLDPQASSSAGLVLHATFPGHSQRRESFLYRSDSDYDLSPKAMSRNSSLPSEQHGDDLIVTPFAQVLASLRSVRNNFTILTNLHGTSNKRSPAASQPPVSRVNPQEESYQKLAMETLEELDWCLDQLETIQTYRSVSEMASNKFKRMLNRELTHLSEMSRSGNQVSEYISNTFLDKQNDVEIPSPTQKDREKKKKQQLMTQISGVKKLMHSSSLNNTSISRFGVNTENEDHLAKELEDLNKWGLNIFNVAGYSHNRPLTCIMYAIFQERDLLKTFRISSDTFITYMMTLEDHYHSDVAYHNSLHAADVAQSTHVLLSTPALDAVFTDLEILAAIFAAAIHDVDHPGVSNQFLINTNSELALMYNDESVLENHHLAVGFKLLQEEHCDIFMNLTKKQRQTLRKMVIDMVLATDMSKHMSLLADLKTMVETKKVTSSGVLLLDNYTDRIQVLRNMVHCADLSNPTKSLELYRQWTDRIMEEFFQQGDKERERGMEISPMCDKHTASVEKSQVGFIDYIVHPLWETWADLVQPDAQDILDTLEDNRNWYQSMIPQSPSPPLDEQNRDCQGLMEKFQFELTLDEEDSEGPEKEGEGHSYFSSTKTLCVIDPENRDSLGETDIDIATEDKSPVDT
# Summary of the method: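 ACTOne HEK293 cells carry a modified cAMP-gated CNG channel and express endogenous PDE4; plated 1000 cells/well, compounds up to 22.9 uM final. Membrane-potential dye fluorescence (ex 535/em 590) was read; parental cells received 10 uM forskolin + 100 uM RO 20-1724.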
# [9] = Stat Signaling Pathway (AID 446; active = well fitted curve in either direction with a large enough effect, not every such curve was filed as active; inconclusive = small, poorly fitted or top-dose-only effect, or another doubt;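 note: ME-180 cervical cancer cells given 40 pM IL-6 alongside compound; SIE-controlled beta-lactamase reporter measured as 460/530 nm FRET emission ratio; top concentration of the series differs between compounds; % is set by controls: 0 for no effect and ±100 for the full control effect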); conditions: ME-180 SIE beta-lactamase reporter, IL-6 stimulated, 5 h; at 7.69 µM (top of the series)
# Summary of the method: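 ME-180 SIE-bla cells; overnight plating; cpd + IL-6 40 pM, 5 h, 37 C; LiveBLAzer 2.5 h RT; 460/530 nm emission ratio. Normalized to 300 pM IL-6 and 125 nM JAK inhibitor controls.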
# [10] = biological target: Mitogen-activated protein kinase 10 (Mus musculus) (UniProt Q61831); assay: JNK3 AlphaScreen Assay (AID 530; active = well fitted curve in either direction with a large enough effect, not every such curve was filed as active; inconclusive = small, poorly fitted or top-dose-only effect, or another doubt;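 note: kinase came from lysate of stimulated human HepG2 cells; signal reports phosphorylation of biotinylated GST-cJun 1-79 at Ser73 with 10 µM ATP; potency is the fitted concentration of half-maximal effect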); conditions: JNK3 lysate, c-Jun phosphorylation; activity change, negative = inhibition: at 57.1 µM (top of the series)
# Summary of the method: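 Room-temperature AlphaScreen kinase assay; pre-activated HepG2 lysate as JNK3 source, biotin-GST-cJun(1-79) substrate, 10 uM ATP, compound 15 min preincubation.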
# [11] = Cellular Toxicity (caspase-3) Mesangial (AID 660); conditions: mesangial cells, normalized: DMSO 0%, 100 µM tamoxifen 100%; at 91.7 µM (top of the series);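 note: cells exposed to compound for 16 h before the caspase read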
# Summary of the method: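 Human renal glomerular mesangial cells (1000/well) were treated with compounds for 16 h at 37 °C in complete medium, then caspase 3/7 activity was read by Caspase-Glo luminescence. Data were normalized to DMSO and 100 uM tamoxifen; AC50 from Hill fits.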
# [12] = qHTS of pediatric cancer cell lines to identify multiple opportunities for drug repurposing: Primary screen for U-2 OS cells (AID 1347096);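 note: plate controls were DMSO wells for no effect and bortezomib positive control wells for full effect; nearly all actives have a fitted effect of over 50% in size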
# Summary of the method: (§1)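 Cells (500-1,000/well) rested 5 h, then received compounds for 48 h; metabolically active cells were measured by CellTiter-Glo luminescence. Final concentrations spanned up to 46 µM (MIPE, 11-point) or 0.59 nM-46 µM (NPC, 8-point) in primary screens, 11-point in follow-ups.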
# [13] = biological target: Muscarinic acetylcholine receptor M1 (Rattus norvegicus) (UniProt P08482); assay: qHTS Assay for Antagonists of Acetylcholine Muscarinic M1 Receptor: Measurement of IP-One Response (AID 944); note: potency is the fitted concentration of half-maximal effect; nearly all actives have a fitted effect of over 75% in size
# Chain of UniProt P08482 (P08482 whole entry, looked up): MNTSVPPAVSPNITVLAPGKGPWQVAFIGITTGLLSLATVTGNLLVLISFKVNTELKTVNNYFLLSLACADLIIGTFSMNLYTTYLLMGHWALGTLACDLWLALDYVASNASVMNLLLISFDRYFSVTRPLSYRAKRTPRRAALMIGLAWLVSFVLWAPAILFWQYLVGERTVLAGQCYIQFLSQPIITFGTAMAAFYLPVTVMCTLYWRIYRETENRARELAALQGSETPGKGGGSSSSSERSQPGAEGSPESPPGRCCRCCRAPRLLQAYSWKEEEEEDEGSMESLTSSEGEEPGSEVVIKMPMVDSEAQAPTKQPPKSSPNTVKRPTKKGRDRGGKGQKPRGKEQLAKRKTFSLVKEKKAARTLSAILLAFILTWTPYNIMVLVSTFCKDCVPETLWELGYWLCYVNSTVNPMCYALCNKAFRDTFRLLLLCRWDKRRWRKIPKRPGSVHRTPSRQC
# [14] = biological target: Endonuclease 4 (Escherichia coli (strain K12)) (UniProt P0A6C1); assay: Counterscreen for APE1 Inhibitors: qHTS Validation Assay for Inhibitors of Endonuclease IV (AID 1708); note: potency is the fitted concentration of half-maximal effect
# Summary of the method: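 Enzymatic AP-site incision assay using a double-stranded THF substrate labelled with TAMRA and BHQ-2; released fluorescence signals activity. Enzyme 2 nM, substrate 50 nM, 15 min compound preincubation.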
# [15] = Validation screen for small molecules that induce DNA re-replication in MCF 10A normal breast cells (AID 463097); note: potency is the fitted concentration of half-maximal effect; nearly all actives have a fitted effect of over 60% in size
# Summary of the method: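 DNA re-replication was detected as a rise in nuclei with elevated Hoechst fluorescence after a 48 hr compound exposure of MCF 10A cells at 37 C.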
# [16] = Quantitative high throughput screen for delayed death inhibitors of the malarial parasite plastid, 96 hour incubation (AID 488745); note: potency is the fitted concentration of half-maximal effect; nearly all actives have a fitted effect of over 70% in size
# Summary of the method: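 P. falciparum carrying an integrated firefly luciferase reporter, grown in erythrocytes (2% hematocrit, 0.1% parasitemia final) in RPMI 1640/0.5% Albumax, was exposed to compound for 96 h (two generations) at 37 C, 5% CO2. Luminescence decrease indicated growth inhibition.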
# [17] = biological target: Peptidyl-prolyl cis-trans isomerase NIMA-interacting 1 (Homo sapiens) (UniProt Q13526); assay: qHTS Validation Assay to Find Inhibitors of Pin1 (AID 504536; active = well fitted inhibition curve with a large enough effect in the polarisation, with a control signal flat, not every such curve was filed as active; inconclusive = small, poorly fitted or top-dose-only effect, or effect the other way; the % refers to the polarisation;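 note: 0% = full Pin1 enzyme wells and -100% = no-enzyme wells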)
# Chain of UniProt Q13526 (Q13526 whole entry, looked up): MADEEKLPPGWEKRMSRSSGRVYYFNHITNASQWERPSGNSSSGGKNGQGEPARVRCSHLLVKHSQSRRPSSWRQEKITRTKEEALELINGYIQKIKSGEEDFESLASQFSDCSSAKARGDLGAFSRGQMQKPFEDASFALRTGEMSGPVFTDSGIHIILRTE
# Summary of the method: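 Fluorescence polarization competition: compounds (titration) displace HiFluor-488-labeled Pin1-1b peptide from Pin1 (0.3 uM final) in pH 7.5 HEPES buffer with DTT, 10 min at room temperature; %Activity normalized to no-enzyme wells, curves fitted.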
# [18] = qHTS of pediatric cancer cell lines to identify multiple opportunities for drug repurposing: Primary screen for SK-N-SH cells (AID 1347098);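 note: DMSO served as neutral control and bortezomib at 2.3 µM as positive control; % is set by controls: 0 for no effect and ±100 for the full control effect; nearly all actives have a fitted effect of over 65% in size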
# Summary of the method: as §1
# Papain (Carica papaya) = Papain (Carica papaya) (UniProt P00784); assay: Primary qHTS assay for inhibitors of the protease papain (AID 1645873);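 note: papain turnover of Z-FR-AMC read as the AMC fluorescence gain over 10 min; % is set by controls: 0 for no effect and ±100 for the full control effect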
# Chain of UniProt P00784 (P00784 whole entry, looked up): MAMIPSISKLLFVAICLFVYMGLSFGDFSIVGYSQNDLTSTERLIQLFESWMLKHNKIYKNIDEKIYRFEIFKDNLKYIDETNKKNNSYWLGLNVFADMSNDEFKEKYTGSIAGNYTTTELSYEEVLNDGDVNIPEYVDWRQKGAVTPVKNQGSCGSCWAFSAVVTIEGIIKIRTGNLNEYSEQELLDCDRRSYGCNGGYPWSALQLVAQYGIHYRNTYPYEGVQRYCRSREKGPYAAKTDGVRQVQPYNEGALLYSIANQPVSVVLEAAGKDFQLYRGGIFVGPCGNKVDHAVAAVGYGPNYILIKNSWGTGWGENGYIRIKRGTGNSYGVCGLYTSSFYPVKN
# Tags give direction and shape of the fitted curve.
smiles,measurement,setting,value
CCc1cc2c(=O)c(-c3nc4ccccc4s3)coc2c(CN2CCCCC2)c1O,Potency,[1],"inconclusive [inhibitor, partial curve]"
Cc1ccc2c(Cl)cc(Cl)c(O)c2n1,Potency,[2],inactive
same,Potency,Tov112D,inactive
CCC(=O)O[C@H]1CC[C@H]2[C@@H]3CCc4cc(O)ccc4[C@H]3CC[C@]12C,Potency,[3],inactive
C[C@]12CC[C@@H]3c4ccc(O)cc4CC[C@H]3[C@@H]1CC[C@@H]2O,Potency,[4],"inconclusive [activator, full curve, poor fit]"
same,activation,[5],inactive: -2.42%
same,"ratio change, negative = depolarisation",[6],inconclusive: -17.6%
O=C(O)COc1ccc(CCNS(=O)(=O)c2ccccc2)s1,Potency,[7],"inconclusive [inhibitor, partial curve]"
Cc1cc(-c2ccc(N=Nc3ccc4c(S(=O)(=O)O)cc(S(=O)(=O)O)c(N)c4c3O)c(C)c2)ccc1N=Nc1ccc2c(S(=O)(=O)O)cc(S(=O)(=O)O)c(N)c2c1O,Potency,[8],"inconclusive [inhibitor, single point]"
CC(C)=CCC/C(C)=C/CO,"activity, negative = inhibition",[9],inconclusive: 3.77% [activator]
CCCCC(CC)COC(=O)c1ccc(N(C)C)cc1 (stereo not given),Potency,[10],"inconclusive [activator, partial curve]"
same,caspase-3 activation,[11],inactive: -0.763%
same,Potency,[12],inactive
CCCCNc1ccc(C(=O)OCCN(C)C)cc1,Potency,[13],"inconclusive [inhibitor, partial curve, poor fit]"
same,Potency,[14],"inconclusive [inhibitor, full curve]"
same,Potency,[15],"inconclusive [activator, partial curve, poor fit]"
same,Potency,[16],"inconclusive [activator, full curve]"
same,Potency,[17],inactive
same,Potency,[18],inactive
same,Potency,Papain (Carica papaya),inactive
